These results are taken from paper PMC12136788.

The other results are listed elsewhere or left out.

Sequences and labels used below:
T1: UNK ZnF1-3 (human, UniProt Q9C0B0 31-174)
T1 sequence: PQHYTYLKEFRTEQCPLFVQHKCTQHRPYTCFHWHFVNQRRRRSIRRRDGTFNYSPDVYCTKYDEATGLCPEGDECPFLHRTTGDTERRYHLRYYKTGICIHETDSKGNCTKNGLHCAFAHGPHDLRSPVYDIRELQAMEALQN

B1: chr18:33688888:33688889:-_ENSG00000141424_ENST00000269187|hu_hu|motif|central (ssRNA)
RNA: GGGAGUUCUACAGUCCGACGAUCUGCUUGAAUUCAUUAAAUAUAUUUAGAUUUCUGUAUUAUACAAAGUUAAAUGUACAACGGAAUUAGUAUAUGAAAAGUGCUCACUACGUUUUUACGGGAAAUAAUCCUGACAAAAAUGUUCAACAGAGGAUUGAGCAUCA
B2: chr13:100192284:100192285:-_ENSMUSG00000052727_ENSMUST00000064762|mus_mus|FALSE|FALSE (ssRNA)
RNA: GGGAGUUCUACAGUCCGACGAUCUGGUAAAAUUUCCAUUAGCAAAUGAUUAAAUUUAUAAAACGAGUAUUAGAAAGCUCCUAAAUUUCAUAAGCUAUUGGAAACACUUAAAACAUUCAUAUACACUGGGGAAACCAUUCACUACAACAGAGGAUUGAGCAUCA
B3: chr2:125074910:125074911:+_ENSMUSG00000027203_ENSMUST00000082122|mus_hu|motif|central (ssRNA)
RNA: GGGAGUUCUACAGUCCGACGAUCUUUUGCAGCCAAGCCUGACCGUGGAGCCACUCUUCCAUAACACCCAGAAGGGAGCGCGGUCUGAAUGUCCGUUUUCACAACAGCUUUCUCCAUAGGUGGUAUUGUGUAAUCAUAGGCACUCAACAGAGGAUUGAGCAUCA
B4: chr2:24917620:24917621:+_ENSMUSG00000006476_ENSMUST00000102931|mus_mus|FALSE|FALSE (ssRNA)
RNA: GGGAGUUCUACAGUCCGACGAUCAGUAAUGCUGCUUCCCUUCAAAUUGUUUCAGGGGUGUAAAAAAAUUGCACUUAUUUCUAUGAACCCCAUGGAGGGGAUCCCCAAUGCUGCUGCCUCCAGGCGAGGCAUGACAGGUCAAUGCAACAGAGGAUUGAGCAUCA
B5: 34915422_34918585_112_CDS_ENSG00000159140_ENST00000381679|human|control|control (ssRNA)
RNA: GGGAGUUCUACAGUCCGACGAUCAUCACCCGCCUGGUUUCCUUCAAUGGGUGUAUUUGUUUCACCAUUCAGCUGGCCUUCAUUCCUUCCACUGGAAAGCUCCUGUUGAAUUUCCCGGAAUUUACUGACCACGAAAGACCUAAACAACAGAGGAUUGAGCAUCA
B6: 32767072_32769260_1369_CDS_ENSG00000182973_ENST00000328834|human|control|control (ssRNA)
RNA: GGGAGUUCUACAGUCCGACGAUCAGGCCUUCCAAUGUGAAGAAGCUGAAUUCCACAGUUAUACAGCAACUCAUAUCUCUUAUUGGUUAGUAACGUACACAUGGGUCUUCCUGAAAAUUUUUUACCUGGAUCAGUGCUACCUGCCAACAGAGGAUUGAGCAUCA
B7: chr10:60127708:60127709:+_ENSG00000072401_ENST00000373910|hu_hu|FALSE|FALSE (ssRNA)
RNA: GGGAGUUCUACAGUCCGACGAUCUGCAUGUCUGUUGUAUUUUUCUUUGUCUGAUUUAUAGAUUUGUGCAAUAUCUGGUACUAAGGGGUCAUCUGGAUUAGGAUCACAAAGUAGAGAACAUAUGGACAAUAAAACUUUUGAUACCAACAGAGGAUUGAGCAUCA
B8: chr1:60041781:60041782:+_ENSMUSG00000041040_ENSMUST00000036540|mus_hu|mus_mus_mus_hu_False|98_108 (ssRNA)
RNA: GGGAGUUCUACAGUCCGACGAUCAAGAGGAGUGAAUCUCAACUUUAGCAGUAGUGGCAAAUUUUCUUUUAUUUUCCUUCACAAAAGAAAAUCUUUAUAACCCAGUCCUAGUCUUGGACAUAGUGAAAGCUAUAAAUUCUGACUCAACAGAGGAUUGAGCAUCA
B9: 36909483_36909603_678_3pUTR_ENSG00000133104_ENST00000494062|human|control|control (ssRNA)
RNA: GGGAGUUCUACAGUCCGACGAUCGUAAAGACAGAGAAGCAGGUGCAGCAACUGCCCCUGCACUUGGAGUUGAGGUGUUUCCAUUUACUUCAGCAUGCUGAGGAGCUGAACUAAAAGACUGAGGCUCUGGUAAUUUUUCACACACAACAGAGGAUUGAGCAUCA
B10: 17902918_17905106_1138_CDS_ENSMUSG00000003527_ENSMUST00000003621|mouse|control|control (ssRNA)
RNA: GGGAGUUCUACAGUCCGACGAUCGUUCUCUGUAACUCUCCGCAACGCUUCCUGCUUCUUCGCCCGGUUUUUGGCAGCCGCUUCAUUGGCCAUCUUCAGGCCCAGACGCUCCCUGCGUCCUGGCUCCAAGAUCUUGAAUGUGGGCAACAGAGGAUUGAGCAUCA
B11: chrX:140365796:140365797:-_ENSMUSG00000031285_ENSMUST00000033642|mus_mus|mus_mus_mus_hu_False|38_78 (ssRNA)
RNA: GGGAGUUCUACAGUCCGACGAUCCUUCUCAUUACUCAGUGCCUGCAAGGUUCUGGUUCUGUAGAAGCUACAGUGGGCGCUGUGAGUGGGGCUAGGCAGUCCAUUCAUCCGGGAGCCUCGCAUGUUCCUGGAUGUCUUAUCUCUCAACAGAGGAUUGAGCAUCA
B12: chr1:150203005:150203006:-_ENSG00000143401_ENST00000314136|hu_mus|motif|central (ssRNA)
RNA: GGGAGUUCUACAGUCCGACGAUCAAGAUUUGGACAUUUCUCUGCCAGGACUUCCAAGCCUCCAGAAAUUAUAUUGUCACGGAGUUCCAACUUCCGGAGUUUAUUCAAGCUGGGAAGCCGGGCCAAGGAACUCAACUCCACGUUCAACAGAGGAUUGAGCAUCA
B13: 150808967_150812034_629_3pUTR_ENSG00000143437_ENST00000358595|human|control|control (ssRNA)
RNA: GGGAGUUCUACAGUCCGACGAUCUCCUGAUCAGUGAGGAAAGACGGCUUAUAGGAGCCAUCAGUGGAUGUGUUGCCAGUUCCCCGCAAGGACUUCAUGUGAGAAACUGCCAUGCGUAAGAUGGUUAGCUUGUCUGGUUUUCGACAACAGAGGAUUGAGCAUCA
B14: chr5:33459820:33459821:+_ENSG00000113407_ENST00000502553|hu_mus|FALSE|FALSE (ssRNA)
RNA: GGGAGUUCUACAGUCCGACGAUCCCAGAGCCGGCUAUUGAAGAUGUUGGGAGUGACGACCUCCUGGAACCCUCUUUUCCUAUAUUCACUCCUGAUAAAUUCCAUUAGUGUAUUAUAAAUGUAGGCUCCUUUGGGCAGGAAAAACAACAGAGGAUUGAGCAUCA

In the assay the target is T1, UNK ZnF1-3. Nature of the assay: nsRBNS (natural sequence RNA bind-n-seq); RBNS binding buffer (assumed for nsRBNS): 25 mM Tris pH 7.5, 150 mM KCl, 3 mM MgCl2, 0.01% Triton X-100, 500 ug/ml BSA, 20 U/ml SUPERase-In, 4 C; UNK is unkempt and MSI1 is Musashi-1; names of the RNAs are library labels; protein concentration not given here; high values mean tight binding.
In turn, B1 showed a binding signal of 0.723 enrichment R. With B2 the figure was 1.03 enrichment R; with B3, 1.02 enrichment R. The same measure for B4: 0.816 enrichment R; for B5: 0.849 enrichment R. The same measure for B6: 1.2 enrichment R. In the case of B7, the binding signal stood at 1.3 enrichment R. With B8 the figure was 0.701 enrichment R. With B9 the figure was 0.702 enrichment R. With B10 the figure was 0.552 enrichment R; with B11, 0.401 enrichment R.

On to B12, for which the binding signal was 0.87 enrichment R. The same measure for B13: 0.734 enrichment R; for B14: 1.02 enrichment R.
